{
  "source": "patent US20250161441A1",
  "about": "“MEDICINE COMPRISING COMBINATION OF ANTI-MUTANT-CALR ANTIBODY AND ANOTHER DRUG” (JUNTENDO EDUCATIONAL FOUNDATION, priority 2022, published 2025)",
  "molecules": {"B1": {"name": "Antibody 5: anti-mutant CALR/CD3 bispecific antibody, H chain SEQ ID NO: 181, L chain SEQ ID NO: 202 (antibody)", "heavy": "QVQLVQSGAEVKKPGSSVKVSCKASGYTFTRNFIHWIRQAPGQGLEWIGWIFPGDADTEYNQKFSGRVTITADKSTSTAYMELSSLRSEDTAVYYCARGNYNYEYFDYWGQGTMVTVSSASTKGPSVFPLAPSSKSTSGGTAALGCLVKDYFPEPVTVSWNSGALTSGVHTFPAVLQSSGLYSLSSVVTVPSSSLGTQTYICNVNHKPSNTKVDKRVEPKSCGGGGSQVQLVQSGGGVVQPGRSLRLSCKASGYTFTRYTMHWVRQAPGKGLEWIGYINPSRGYTNYNQKVKDRFTISRDNSKNTAFLQMDSLRPEDTGVYFCARYYDDHYSLDYWGQGTPVTVSSGGGGSGGGGSGGGGSDIQMTQSPSSLSASVGDRVTITCSASSSVAYMNWYQQTPGKAPKRWIYDTSKLASGVPSRFSGSGSGTDYTFTISSLQPEDIATYYCQQWSSNPFTFGQGTKLQITR[human IgG1 Fc with changes skipped]", "light": "DIQMTQSPSSLSASVGDRVTITCLASEDIYSYLAWYQQKPGKAPKLLIFAANRLQSGVPSRFSGSGSGTDFTLTISSLQPEDFATYYCLQGSKFPYTFGPGTKVDIKRTVAAPSVFIFPPSDEQLKSGTASVVCLLNNFYPREAKVQWKVDNALQSGNSQESVTEQDSKDSTYSLSSTLTLSKADYEKHKVYACEVTHQGLSSPVTKSFNRGEC"}},
  "tested_on": "UT-7/TPO/Ins 5-Luc cells",
  "experiment": "T cell-dependent cellular cytotoxicity (TDCC) of bispecific antibody plus combined drug, luciferase viability readout",
  "assay_type": "cell-based",
  "details": "human T cells, E/T=10, 48 hours, CI by Chou-Talalay method (CompuSyn), CI < 0.7 synergistic, < 0.3 strong synergistic, around 1 additive",
  "protocol": "UT-7/TPO/Ins 5-Luc cells as target cells were cultured with T cells in the presence of the bispecific antibodies and hydroxyurea, ruxolitinib, or interferon α, and then the viability of the target cells was determined using luciferase activity as an indicator to evaluate T cell-dependent cellular cytotoxicity (hereinafter referred to as TDCC).\nThe T cells were isolated and concentrated from healthy human blood using RosetteSep Human T Cell Enrichment Cocktail ([…] technologies) or from healthy human peripheral blood mononuclear cells (PBMCs) using Pan T cell isolation kit (Miltenyi biotech). […]\nThe cell viability of each well was calculated using the chemiluminescence value of a control well without bispecific antibody and combined drug as 100%.\nThe combination effect was evaluated using a combination index (CI). The CI was calculated using CompuSyn software (Combosyn, Inc.) based on the Chou-Talalay method (Chou T. C. & Talalay, P.: Adv. Enz. Regul. 22: 27-55, 1984). A CI below 0.7 is determined to have a synergistic effect, and a CI below 0.3 is determined to have a strong synergistic effect. A CI of around 1 is determined to have an additive effect.",
  "data": [
    {"molecule": "B1", "values": [
      {"measurement": "CI (Cytotoxicity at level of 85%)", "setting": "combined drug hydroxyurea", "result": 0.29},
      {"measurement": "CI (Cytotoxicity at level of 85%)", "setting": "combined drug interferon α", "result": 0.11}
    ]}
  ]
}
